# According to ChEMBL document CHEMBL4888484, “Replenishing the malaria drug discovery pipeline: Screening and hit evaluation of the MMV Hit Generation Library 1 (HGL1) against asexual blood stage Plasmodium falciparum ,using a nano luciferase reporter read-out” (2022):
# Out of some 150,000 compounds screened, about 540 (0.36%) showed an effect of 50% or more. Some of the results follow.
# System: Plasmodium falciparum
# Assay: Primary screen in NF54 nanoGlo assay, in single point, at 2uM, 72h; a lower Z score goes with more inhibition
# Assay type: functional, Erythrocyte
# Details: timepoint 72 hour
Structure (SMILES),% Inhibition [%],Z score
CCN(Cc1noc(C2CCC2)n1)C(=O)NCC1(CC(C)C)CCC1,-10,0.88
O=C(c1ccc2[nH]ncc2c1)N1CC[C@]2(CCOC2)C1,-10,1.32
O=C(c1csc(C2CC2)n1)N1CC[C@H](Oc2cccc(F)c2)C1,-4,0.43
CN(C(=O)NCCC1=CCCCC1)C1CCN(c2ccccn2)CC1,-13,1.67
O=C(c1ccncc1)N1C[C@@H]2OCC(=O)N(Cc3ccccn3)[C@@H]2C1,-8,1.69
CC1CC(C)CC(c2noc(C(=O)c3cnn(C)c3)n2)C1 (configuration not stated),-5,0.55
O=S(=O)(NC1CCCC1)C1CN(c2nnc(-c3ccccc3Cl)s2)C1,-1,0.1
CCn1c(CN2CCC[C@H](c3nc4ccccc4s3)C2)nc2cc(S(=O)(=O)N(C)C)ccc21,-14,1.43
CN1CCC(CC(=O)N[C@H](c2ccccn2)C(F)(F)F)CC1,-12,1.96
COC[C@@H]1[C@H](C(=O)N2CCN(c3ccccc3F)CC2)CCCN1Cc1ccccc1,-6,0.73
CC(C)c1nccn1C1CN(C(=O)c2ccoc2)C1,1,-0.21
CC(C)CNC(=O)c1cc2cc(NS(=O)(=O)c3ccc(C(C)(C)C)cc3)ccc2n1Cc1ccccc1,-13,2.54
Cc1ccc(S(=O)(=O)NC(=O)C2(c3ccc(F)cc3)CCC2)cc1C,4,-0.46
COc1nccc(NC(=O)NCC(=O)OC(C)(C)C)n1,-11,1.01
C[C@H]1CN(C2CCN(S(=O)(=O)c3cnoc3)CC2)CCN1c1ncc(C(F)(F)F)cc1Cl,-1,0.12
COCCCN(CCC(=O)NCCC(C)C)C(=O)c1ccoc1,-11,1.1
Cn1cc(Cl)c(C(=O)NCCc2cnn(-c3ccccc3)c2)n1,-7,1
C[C@H]1CCCN(c2ccc(Cl)cc2NC(=O)c2cncs2)C1,-15,2.6
O=C(NC1(CC(F)(F)F)CC1)c1cc2n(n1)CCCO2,-7,0.88
Cc1csc([C@@H](NC(=O)CC2CCN(C)CC2)C(F)(F)F)n1,-11,1.55
Cc1nn(C)c2nc(NCc3nnc4n3CCCCC4)sc12,-16,2.39
Cc1nc(-c2ccccc2NC(=O)NCCC2(O)CCC2)cs1,-1,0.12

Structure (SMILES),% Inhibition [%],Z score
Cc1c(S(=O)(=O)N2CCc3ccccc32)cc(-c2nc(-c3ccc(F)cc3)cs2)n1C,-14,1.66
Cc1oncc1CN1CCN(C(=O)c2ccc3ccccc3n2)CC1,-5,0.66
O=C([C@H](O)c1ccc(Cl)cc1F)N1CCN(C2CC2)CC1,-11,1.11
Cc1ccsc1[C@H]1CCN(C(=O)c2ccc(C#N)nc2)C[C@@H]1O,-5,1.08
COc1ccccc1CC(=O)NCc1cn(-c2ccsc2)nn1,9,-1.33
Cc1nc2ccccc2n1CCN[C@@H](C)c1ncc(Cl)n1C,1,-0.09
Cc1occc1CN(C)S(=O)(=O)c1ccc(C#N)cc1,5,-0.54
CC1(C)CC[C@H](CS(=O)(=O)NCCc2cn[nH]c2)OC1,1,-0.13
N#Cc1ccc(NC2CC2)c(NS(=O)(=O)C[C@H]2CCCO2)c1,-11,1.14
Cc1cc(Br)ccc1CC(=O)NC(C)(CO)CO,-6,0.6
C[C@@H](C(=O)Nc1c(F)cccc1NC1CC1)n1cccn1,-10,1.95
COc1ncncc1NC(=O)[C@H](C)c1ccc(Cl)s1,-4,0.66
O=C1CCN(C(=O)[C@H]2CC(=O)N(c3ccc4c(c3)CCC4)C2)CCN1,-11,1.36
CC(c1nnc(-c2cccs2)o1)N1CCOC(c2nccs2)C1 (configuration not stated),-3,0.32
COc1cc2c(=O)[nH]cnc2cc1OCc1ccccc1,-15,1.71
CC(C)n1nccc1C(=O)N1CCC2(CN(C)C2)C1,8,-1.59
CCC[C@H](NC(=O)c1n[nH]c(=O)[nH]1)c1nccn1C,-11,1.3
Cc1ccsc1C(C)NCC1(O)CCOC1 (configuration not stated),-3,0.36
O=C1OCC2(CCN(CC(c3ccccc3)c3ccccc3)CC2)O1,-4,0.59
O=S(=O)(NCCc1ccc(-c2ccsc2)s1)C1CC1,-7,0.97
CCc1ccc(CN[C@@H](C)C2=CCCCC2)nc1,-1,0.1
CCc1cc(C(=O)NCCN2CCc3ccccc3C2=O)oc1CC,-6,0.89

Structure (SMILES),% Inhibition [%],Z score
COC(=O)c1c(NC(C)=O)c2cc(N[C@H]3CCc4ccccc4C3)cnc2n1CCC(C)C,10,-1.26
Cc1nccn1C[C@H]1CCCN(Cc2cc3c(cc2Cl)OCO3)C1,12,-1.63
CC[C@H](C)CS(=O)(=O)Cc1cc(C)on1,-12,1.11
CC1(C)CN(C(=O)Cn2cc(Br)ccc2=O)CCO1,-12,2.36
Cn1ccn2ncc(C(=O)NCC3(COc4ccccc4)CC3)c12,-1,0.15
CN(Cc1cccs1)C(=O)c1cccc2cn[nH]c12,-5,0.85
O=C(NCC(=O)N1CCc2ccccc2C1)c1cccs1,-8,0.69
COCCn1ccc(NC(=O)C(=O)N(C)Cc2cccc(C)c2)n1,-5,0.85
CCCC[C@@H](c1cccnc1)N(C)Cc1cncn1C(C)C,-8,0.84
Cc1ccc(CN2CCCn3nc(C(=O)NCCC(=O)N4CCN(C)CC4)cc3C2=O)cc1,-14,1.92
CCCCN(C)C(=NCC)NC1CCC1,-16,2.84
O=C1N(CCCc2ccccc2)CCC[C@@]1(O)CN1CCC2(CC1)OCCO2,11,-1.44
CCNC(=O)[C@@H]1C[C@@H](N)CN1Cc1cccc2ccccc12,16,-2.24
CCCOC1(c2noc([C@@H]3Cc4ccccc4N3C(C)=O)n2)CCCCC1,3,-0.54
CC1(c2cc(NC(=O)NC[C@]34C[C@H]3COC43CCC3)no2)CCCC1,-2,0.27
CS(=O)(=O)CCOCCNc1nc(C(F)(F)F)cs1,-14,1.88
C=CCN(CC=C)C(=O)Cc1ccc(C)cc1,-5,0.89
CCCc1nc(C)c(CNC(=O)[C@@H]2CCCCCN2C)s1,-11,1.56
O=C(Cn1cc(OCc2ccccc2)c(=O)cc1CO)Nc1cccnc1,35,-3.93
Cc1noc(COCC(=O)N2CC3(CCC3)[C@@H]2C2CC2)n1,4,-0.65
CCS(=O)(=O)c1ccc(N2CCC(NC(=O)C3CCCC3)CC2)cc1,-3,0.53
Cn1nncc1S(=O)(=O)N1CCNC[C@H]1c1cccc(F)c1,11,-1.39

Structure (SMILES),% Inhibition [%],Z score
COCCn1ncc2c1[C@@H](NC(=O)c1[nH]ccc1C1CC1)CCC2,0,-0.07
COc1ccccc1N(c1nc(-c2ccc(C)cc2)cs1)[C@@H](C)C(=O)N1CCCC1,5,-0.61
Cc1ccc(-n2ncc3c(O)c(-c4nc(-c5cccc(F)c5)no4)c(=O)[nH]c32)cc1,-3,0.34
O=C(NCC1CCN(C(=O)c2ccc(-n3cnnn3)cc2O)CC1)c1ccco1,8,-1.1
Cc1noc2ncnc(NCc3ccc(Br)cc3)c12,-14,2.27
O=C(CCc1ccccc1)Nc1ccc(NC(=O)c2ccco2)cc1,-6,1.19
Cc1oc(-c2ccsc2)nc1CN(CCO)C(C)C,19,-2.44
COc1cc(NC(=O)N2Cc3cn[nH]c3CC(C)(C)C2)cc(Cl)c1OC,-5,0.72
Cc1nc(C2CCCN2CC(=O)N2CCCCC2C)cs1 (configuration not stated),-3,0.4
CS(=O)(=O)c1ccc(NC(=O)CCc2cccs2)cc1Cl,-21,2.7
O=C(C[C@H](c1cccc(Cl)c1)c1cn(Cc2ccccc2)c2ccccc12)NCc1ccncc1,-1,0.09
O=C1C(CN2CCCCC2)CCCC1CN1CCCCC1 (configuration not stated),-1,0.07
O=C(OCc1cc(Cl)c2c(c1)OCO2)c1cc(-c2ccccn2)no1,-14,1.68
COc1cccc(-c2noc(C(F)(F)c3ccccn3)n2)c1,-10,1.53
CC(C)c1noc(CN2C(=O)COc3cccnc32)n1,-7,1.29
O=C(Nc1ccc2c(c1)C(=O)N1CCC[C@H]1C(O)=N2)c1cncc(Br)c1,-3,0.33
O=C(NC[C@H]1CCCO1)c1csc(N2CCN(c3cccc(Cl)c3)CC2)n1,-1,0.16
C[C@H]1CCCN(S(=O)(=O)N(C)Cc2ncnn2C)C1,1,-0.07
O=C(OCc1cccnc1)N1CCC(S(=O)(=O)Cc2ccccc2)CC1,-11,1.75
Nc1ncc(C(=O)N2CCC3(CCCCCC3)C2)s1,97,-17.77
